Source: PubChem BioAssay AID488969 (Vanderbilt High Throughput Screening Facility, 2010)
The full ranking holds about 110,000 compounds; the median of “z-score” is about -0.1, and the highest 2% start at about 2. Some of the results follow. Calls of active or inactive are those of the source.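 The calls were made as follows: active = z-score in the third read window above 3 or below -3; inactive = the rest.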

The compounds below were run against Metabotropic glutamate receptor 8 (Rattus norvegicus) (UniProt P70579) (assay: rat mGluR8 modulators via GIRK flux, primary screen, cell-based, thallium flux, HTS (AID 488969)). Details: HEK293 rat mGluR8, GIRK (G protein-gated inwardly rectifying potassium channel) thallium flux, FluoZin2; at 10 µM; stronger effect = higher value; submaximal glutamate (EC20) added with thallium.
Chain of UniProt P70579 (P70579 whole entry, looked up): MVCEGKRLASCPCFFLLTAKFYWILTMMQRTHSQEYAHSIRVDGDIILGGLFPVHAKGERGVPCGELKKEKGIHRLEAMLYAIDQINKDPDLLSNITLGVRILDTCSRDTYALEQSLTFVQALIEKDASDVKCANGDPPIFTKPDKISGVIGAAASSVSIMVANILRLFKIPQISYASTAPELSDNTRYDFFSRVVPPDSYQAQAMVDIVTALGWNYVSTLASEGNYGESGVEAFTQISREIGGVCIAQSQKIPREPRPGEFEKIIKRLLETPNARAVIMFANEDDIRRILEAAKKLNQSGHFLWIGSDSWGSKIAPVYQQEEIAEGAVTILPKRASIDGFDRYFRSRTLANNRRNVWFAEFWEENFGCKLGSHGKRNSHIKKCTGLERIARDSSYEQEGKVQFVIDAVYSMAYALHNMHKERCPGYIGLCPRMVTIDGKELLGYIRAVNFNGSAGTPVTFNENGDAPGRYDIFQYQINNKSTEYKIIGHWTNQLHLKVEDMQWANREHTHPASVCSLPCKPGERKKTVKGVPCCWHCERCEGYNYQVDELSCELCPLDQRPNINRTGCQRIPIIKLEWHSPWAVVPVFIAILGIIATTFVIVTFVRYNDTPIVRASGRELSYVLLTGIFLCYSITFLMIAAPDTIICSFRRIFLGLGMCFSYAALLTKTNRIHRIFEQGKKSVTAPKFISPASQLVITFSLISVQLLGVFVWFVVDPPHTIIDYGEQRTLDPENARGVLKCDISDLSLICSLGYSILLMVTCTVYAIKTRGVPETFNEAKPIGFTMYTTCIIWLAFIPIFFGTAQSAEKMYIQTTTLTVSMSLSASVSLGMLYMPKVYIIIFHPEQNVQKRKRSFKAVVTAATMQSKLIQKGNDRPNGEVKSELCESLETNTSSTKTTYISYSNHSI
`C/C(=N\NC(=O)CSCc1ccc(Cl)cc1)c1ccc(NC(=O)c2ccccc2)cc1` was tested, and the z-score was -0.128. In the case of `O=C(N/N=C/c1ccc(Cl)cc1Cl)c1n[nH]c2c1CCCC2`, the z-score is reported as -0.138. With `O=C(N1CCOCC1)N1CCN(c2ccccc2)CC1` the z-score was -0.483. For `Cc1ccc(-n2cc3ccc([N+](=O)[O-])cc3n2)cc1`, the z-score was -0.0518. In the case of `c1ccc(CCc2nn3c(C4COc5ccccc5O4)nnc3s2)cc1` (stereo unspecified), the z-score is reported as -0.73. For `O=C1COc2ccc(NC(=O)N3CCN(c4ccc(F)cc4)CC3)cc2N1`, the z-score was -0.094. With `O=C1C(c2ccc(F)cc2)N(Cc2ccc3c(c2)OCO3)C(=O)CN1C1CCCCCC1` (stereo unspecified) the z-score was -0.227. Compound `COC(=O)CNc1ccc2c(c1)OCO2` has a z-score of -0.231. In the case of `Cc1cccc2c1[nH]c1nc(N/N=C\c3ccco3)nnc12`, the z-score is reported as -0.0756. For `O=C(O)c1cnc(-c2ccccc2)nc1Sc1ccc(Cl)cc1`, the z-score was -0.259. In the case of `O=C(/C(=C/O)N=Nc1ccc(Cl)cc1)c1ccncc1`, the z-score is reported as -0.168. In the case of `COc1ccc(-c2n[nH]c(C)c2-c2cc(OC)ccc2O)cc1`, the z-score is reported as -0.00408. `S=c1[nH]nc(-c2ccc3ccccc3n2)n1Cc1ccccc1` showed a z-score of 0.834. Compound `Cc1c(Cl)cccc1NC(=S)NNc1ncc(C(F)(F)F)cc1Cl` has a z-score of 0.506. `Nc1nc(SCC(=O)NCc2ccccc2)n[nH]1` was tested, and the z-score was 0.225. With `O=c1c2cc(Br)ccc2nc(-c2cccc(C(F)(F)F)c2)n1O` the z-score was active: 10.5. Compound `Cc1ccc(-c2nc3ncccn3c2NC2CCCCC2)o1` has a z-score of -0.306. Work on `CCNC(=S)N(Cc1c(C)noc1C)c1ccccc1` yielded a z-score of 0.173. With `Cn1c(SCc2ccccc2)nnc1-c1ccc2c(c1)OCO2` the z-score was -0.0264. With `Cc1ccc(S(=O)(=O)N2C(=O)CCC2C(=O)N2CCN(C)CC2)cc1` (stereo unspecified) the z-score was -0.203. `CCOC(=O)c1c(NC(=O)/C=C/c2ccco2)sc(C)c1C` was tested, and the z-score was 0.569. Work on `COc1cccc(CNc2ccc(N3CCCCC3)cc2)c1OC` yielded a z-score of -0.157. `CCc1ccccc1OCCCOc1ccc(OC)cc1` showed a z-score of -0.0124. `COc1cc(NC(=O)Cn2ncc3c2-c2ccccc2OC3)cc(OC)c1OC` gave a z-score of -0.0375. With `Cc1ccccc1CN(c1ccc(C(=O)Nc2cccnc2)cc1)S(C)(=O)=O` the z-score was -0.532. For `Cc1ccc(C)c(S(=O)(=O)ON2C(=O)c3ccccc3C2=O)c1`, the z-score was 0.0644. `Cc1cc(NS(=O)(=O)c2ccc(NC(=O)c3ccco3)cc2)nc(C)n1` gave a z-score of 0.236. With `COc1ccc(C(CC(=O)NC(C)(C)C)n2cccc2)cc1` (stereo unspecified) the z-score was -0.373. `COc1ccc(S(=O)(=O)N(n2c(C)nnc2-n2nc(C)cc2C)S(=O)(=O)c2ccc(OC)cc2)cc1` showed a z-score of 0.354. `CC(C)(C)N1CC(c2nc3ccccc3n2CCOc2ccccc2)CC1=O` (stereo unspecified) showed a z-score of -0.595. Work on `COc1ccc(C2N(c3ccc(OC)cc3)C(=S)N3CCCN23)cc1` (stereo unspecified) yielded a z-score of 0.0146. Compound `COc1cc(NC(=O)CSc2nc3ccccc3cc2C)c(C(=O)O)cc1OC` has a z-score of -0.123. Compound `Cc1nc(-c2ccccc2)cs1` has a z-score of -0.227. Compound `COc1c(S(=O)(=O)n2nc(C)cc2C)ccc(Cl)c1Cl` has a z-score of -0.668. For `COc1cc(C)ccc1OCCCOc1ccccc1Br`, the z-score was -0.0417. Work on `O=C(c1ccco1)N1CCN(c2ccccc2F)CC1` yielded a z-score of 0.221. With `CCc1nnc(NC(=O)CSc2nnc(-c3ccco3)n2CC)s1` the z-score was -1.25. In the case of `Cc1nnc(SCCC(=O)Nc2nc(-c3ccccc3)ns2)s1`, the z-score is reported as 0.204. `CNC(=S)N(Cc1cccs1)Cc1cc2cc(OC)c(OC)cc2[nH]c1=O` was tested, and the z-score was 0.0596. `COC(=O)C(C)Sc1nnc(Cc2cc(=O)[nH]c(=O)[nH]2)n1-c1ccc(OC)cc1` (stereo unspecified) was tested, and the z-score was 0.194. With `O=C(Nc1ccc2oc(-c3ccncc3)nc2c1)c1c(F)c(F)c(F)c(F)c1F` the z-score was active: 3.39. `O=C(CC1c2ccccc2Oc2ccccc21)Nc1ccccc1F` showed a z-score of 0.0431. Work on `CCS(=O)(=O)N1CCC(C(=O)NCc2ccccc2OC)CC1` yielded a z-score of -0.025. `CNC(=O)OC(C)CNS(=O)(=O)c1ccc(C)cc1` (stereo unspecified) was tested, and the z-score was 0.0108. `Cn1cc(Br)cc2nc(C(F)(F)F)nc1-2` gave a z-score of 0.971. In the case of `CCN(CC)S(=O)(=O)c1ccc(N2CCOCC2)c(NC(=O)c2cccc3ccccc23)c1`, the z-score is reported as -0.482. Work on `CCN(CC)Cc1nc2c(c(=O)[nH]1)C1(CCCCC1)Cc1ccccc1-2` yielded a z-score of -0.249. With `CC(C)c1ccc(S(=O)(=O)c2cn(Cc3ccc(F)cc3)c3cc4c(cc3c2=O)OCO4)cc1` the z-score was -0.241. In the case of `CCCc1nc(SCC(=O)N2CCN(c3ccccc3)CC2)c2c(=O)n(C)c(=O)n(C)c2n1`, the z-score is reported as 2.39. `Cc1cccc(OCCn2c(-c3ccco3)nc3ccccc32)c1` showed a z-score of -0.129. With `Cc1cc(C)cc(C(=O)Oc2coc(CSc3nnc(NC(=O)C4CC4)s3)cc2=O)c1` the z-score was 0.0207. Work on `O=C(N/C(=N\O)c1ccccc1)Nc1ccc(Cl)cc1` yielded a z-score of 2.01. `Cc1nn(CCCC(=O)Nc2sc3c(c2C#N)CCC3)c(C)c1[N+](=O)[O-]` showed a z-score of -0.234. Work on `COc1ccc(C(=O)NCc2nnc(SCC(=O)N3CCCCC3)o2)cc1OC` yielded a z-score of 0.406. For `Cc1ccc(C(=O)COC(=O)CCN2C(=O)C3C4CC(C(Br)C4Br)C3C2=O)cc1` (stereo unspecified), the z-score was -0.128. Work on `Cc1[nH]c2ccc(C(=O)OCCN(C)C)cc2c1C` yielded a z-score of 0.546. Compound `CC(C)COc1ccc(C(=O)OCCN2CCOCC2)cc1` has a z-score of 0.66. `O=C(NNC(=S)Nc1ccc(Cl)cc1Cl)C1CC1` showed a z-score of -0.111. `COc1cccc(NC(=O)C2CC(=O)N(C)C(=Nc3cccc(F)c3)S2)c1` (stereo unspecified) gave a z-score of -0.232. `COC(=O)[C@H]1C2CCC(C(=O)OC)(CC2)[C@H]1C(=O)OC` showed a z-score of -0.0401. `Cc1c2cnn(CC(=O)Nc3cccc(C(F)(F)F)c3)c(=O)c2c(C)n1Cc1ccccc1F` gave a z-score of 0.163. Compound `CCc1cc2cc(C(=O)Nc3ccc(C)cc3)sc2s1` has a z-score of -0.00392. `Cc1ccc(-n2c(CNc3ccc(F)cc3)nnc2SCC(N)=O)cc1` was tested, and the z-score was 0.202. Work on `CCCCNC(=O)COC(=O)c1cc(Br)ccc1Cl` yielded a z-score of -0.148. `COc1ccc(Cl)cc1NC(=O)CSc1nncn1-c1cccnc1` was tested, and the z-score was -0.487. With `CSc1ncc(Cl)c(C(=O)Nc2ccc(S(=O)(=O)N3CCOCC3)cc2)n1` the z-score was 0.162. Work on `O=C(c1ccc(Cl)c([N+](=O)[O-])c1)N1CCN(c2ccccn2)CC1` yielded a z-score of -0.0404. In the case of `O=C(CSc1ccc2nnc(-c3ccncc3)n2n1)NCc1ccco1`, the z-score is reported as -0.149. `COC(=O)C1=C(C)OC(N)=C(C#N)C1c1ccc(OC)c(CSc2ccccn2)c1` (stereo unspecified) gave a z-score of -0.499. With `CC(C)(C)c1ccc(OCC(=O)NCc2ccco2)c(Br)c1` the z-score was 0.144. Work on `Cc1ccc(-c2cc(C(=O)Nc3nn[nH]n3)c3ccccc3n2)cc1` yielded a z-score of -0.104.
